Measured values: article PMC4336329 (PLoS ONE, 2015)
About 2,200 (0.71%) of roughly 310,000 compounds showed an effect of 50% or more. The effect is printed as a negative number. This is one part of the list.

molecular target: human ether-à-go-go-related gene (hERG) potassium channel (human, UniProt Q12809); experiment: primary screen, population patch clamp on CHO cells stably expressing hERG
Sequence (Q12809 whole entry, looked up): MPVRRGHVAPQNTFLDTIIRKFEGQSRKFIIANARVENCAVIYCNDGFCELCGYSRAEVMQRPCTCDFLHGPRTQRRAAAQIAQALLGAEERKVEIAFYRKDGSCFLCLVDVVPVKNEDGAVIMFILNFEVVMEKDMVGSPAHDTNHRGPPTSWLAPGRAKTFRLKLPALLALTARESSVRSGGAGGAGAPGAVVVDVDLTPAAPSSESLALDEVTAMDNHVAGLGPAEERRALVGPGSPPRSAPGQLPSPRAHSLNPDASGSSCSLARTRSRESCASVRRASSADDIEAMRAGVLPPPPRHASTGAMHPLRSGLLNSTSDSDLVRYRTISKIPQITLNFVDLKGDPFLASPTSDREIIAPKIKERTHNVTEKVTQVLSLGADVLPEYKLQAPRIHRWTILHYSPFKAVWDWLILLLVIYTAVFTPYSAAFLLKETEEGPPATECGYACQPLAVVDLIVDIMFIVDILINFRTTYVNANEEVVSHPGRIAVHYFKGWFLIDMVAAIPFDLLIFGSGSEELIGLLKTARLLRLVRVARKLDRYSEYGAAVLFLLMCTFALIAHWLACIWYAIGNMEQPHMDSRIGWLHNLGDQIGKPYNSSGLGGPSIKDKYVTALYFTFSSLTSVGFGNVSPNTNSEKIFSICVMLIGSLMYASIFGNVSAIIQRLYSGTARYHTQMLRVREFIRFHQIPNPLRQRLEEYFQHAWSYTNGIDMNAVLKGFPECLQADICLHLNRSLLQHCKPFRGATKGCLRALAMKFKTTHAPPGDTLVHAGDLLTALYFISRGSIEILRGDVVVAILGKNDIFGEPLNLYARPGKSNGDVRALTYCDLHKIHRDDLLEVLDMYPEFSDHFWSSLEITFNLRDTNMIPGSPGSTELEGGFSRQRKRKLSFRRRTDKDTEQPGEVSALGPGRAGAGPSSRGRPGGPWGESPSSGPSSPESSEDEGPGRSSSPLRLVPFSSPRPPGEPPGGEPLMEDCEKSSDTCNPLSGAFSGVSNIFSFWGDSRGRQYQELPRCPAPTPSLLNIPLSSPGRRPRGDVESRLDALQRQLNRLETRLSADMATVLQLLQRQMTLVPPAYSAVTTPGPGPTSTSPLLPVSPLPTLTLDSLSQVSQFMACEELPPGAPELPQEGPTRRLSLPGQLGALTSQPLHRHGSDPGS

Compound | hERG current change (%, negative = inhibition) at 1uM
COCCCNS(=O)(=O)c1ccc(C)cc1 | 11.9%
Cc1ccc(CNC(=O)C2CCC(=O)N(CCCN3CCOCC3)C2)cc1 (stereo not drawn) | 16.2%
Cc1ccc(N=Nc2c(O)[nH]c(=O)[nH]c2=O)c([N+](=O)[O-])c1 | 2.51%
COCCn1c(SCC(=O)N2CCCC2)nnc1-c1ccco1 | 14.7%
COC(=O)c1c(NC(=O)CSc2nnc(-c3ccco3)n2C)sc(C)c1C | -3%
CC(=O)Nc1cccc(Oc2ncccc2[N+](=O)[O-])c1 | 3.08%
COc1ccccc1CC(=O)Nc1ccc(S(=O)(=O)N2CCCC2)cc1 | 8.61%
C/C(=N/NS(=O)(=O)c1ccc(C)cc1)c1cccc(NC(=O)c2cccc(Cl)c2)c1 | 13.1%
CN(C#N)c1nccc(-c2cccs2)n1 | 0.314%
CCOc1ccc(C(=O)N2CCN(c3ccccn3)CC2)cc1OCC | 16%
CC1Cc2cc(/C(O)=C3/C(=O)C(=O)N(CCCn4ccnc4)C3c3ccc(F)cc3)ccc2O1 (stereo not drawn) | 7.91%
O=C(COC(=O)Cc1ccc(Br)cc1)Nc1c(F)c(F)c(F)c(F)c1F | 0.362%
O=C(Nc1cc2c3c(c1)CC(=O)N3CCC2)c1c(F)cccc1F | 9.99%
Cc1nn(C)c(C)c1C(C)NC(=O)c1cc(COc2cncc(Cl)c2)on1 (stereo not drawn) | 35.3%
COc1ccc(NC(=O)CCNS(=O)(=O)c2ccc3[nH]c(=O)oc3c2)cc1Cl | -26.8%
CCc1nnc(NC(=O)CSc2nnc3c(C)cc4c(C)ccc(C)c4n23)s1 | 14.2%
COC(=O)c1ccc(-n2nc(C(F)(F)F)c3c2-c2ccoc2CC3)cc1 | 14.1%
O=C(CCc1nnc(COc2ccccc2)o1)NCc1ccccc1C(F)(F)F | 3.67%
O=C(Nc1ccc(F)cc1)C(=O)C1C(=O)Nc2ccccc21 (stereo not drawn) | -3.38%
CC1CC(C)CN(C(=O)CSc2nnc(-c3ccc(Cl)s3)o2)C1 (stereo not drawn) | 5.07%
COC(=O)c1ccc(CSc2nc(N)cc(N)n2)cc1 | 6.67%
Cc1c(C(=O)Nc2nccs2)oc2c(Cl)cccc12 | 11.7%
CCN(CC)CCN(Cc1cc2cc(C)cc(C)c2[nH]c1=O)C(=S)NCc1ccco1 | -9.67%

Compound | hERG current change (%, negative = inhibition) at 1uM
CCOc1ccccc1NC(=S)N(CCN(C)C)C(C)c1ccncc1 (stereo not drawn) | 5.16%
CCCN(CC(=O)Nc1ccccc1C)C(=O)C1CCN(S(=O)(=O)c2ccccc2C(F)(F)F)CC1 | 5.51%
CCCc1nn2c(N)c(/C=C3\C=Nc4ccccc43)c(=O)nc2s1 | 12.4%
O=C(N/N=C1\CCc2ccccc21)c1ccccc1Cl | 10.1%
COc1ccc(N2CCN(Cc3nc(N)nc(N4CCCc5ccccc54)n3)CC2)cc1 | 0.804%
COc1ccc(C2C(C(=O)NCCN3CCOCC3)c3ccccc3C(=O)N2C2CCCCC2)cc1 (stereo not drawn) | 10.7%
CCN1CCN(Cc2ccc(OCc3ccccc3)c(OC)c2)CC1 | 4.31%
CC(=O)Cn1nnc2sc(-c3ccccc3)cc2c1=O | 11.3%
O=C(NCc1cccc(C(F)(F)F)c1)C1CCC(=O)N(C2CCCCCC2)C1 (stereo not drawn) | 6.37%
O=C(CC1C(=O)NCCN1Cc1cccc(C(F)(F)F)c1)NC1CCCCCC1 (stereo not drawn) | 7.17%
C(=C\CSc1ncn[nH]1)/CSc1ncn[nH]1 | 2.44%
COC(=O)c1cn(-c2nc(C)c3c(n2)CCC3)nn1 | 4.76%
O=C(NCCCN1CCOCC1)c1ccc2nc(Cc3cccc(Cl)c3)oc2c1 | 3.29%
O=C(CC(Nc1ccc(F)cc1)C(=O)O)c1ccccc1 (stereo not drawn) | 15.5%
COc1cc(NC(=S)Nc2ccccn2)cc(OC)c1 | 3.52%
O=C(CSc1nnc(C2CC2)n1CC1CCCO1)Nc1ccc(Cl)cc1 (stereo not drawn) | -18.5%
COc1ccc(OC)c(NC(=O)C(=O)N/N=C/c2ccccc2[N+](=O)[O-])c1 | 8.29%
O=S(=O)(NCCCSc1ccccc1)c1ccccc1F | -47.3%
CN(C)C(C(=O)Nc1cc(Cl)cc(Cl)c1)c1ccccc1 (stereo not drawn) | 9.54%
COc1cc(OC)cc(C(=O)NN(CCC#N)C2=NS(=O)(=O)c3ccccc32)c1 | 15.5%
C=CCOC(=O)/C=C/C(=O)NC(N)=O | 13.1%
CCOC(=O)C(/C(N)=N/C(=O)Nc1ccccc1)=C(\C)O | 12.1%
O=C(CCNC(=O)c1ccc(Br)cc1)Nc1cccc(S(=O)(=O)N2CCCC2)c1 | 7.02%

Compound | hERG current change (%, negative = inhibition) at 1uM
O=C(Oc1cccc(N2C(=O)CCC2=O)c1)C1CC(=O)N(c2ccc(Br)cc2)C1 (stereo not drawn) | 7.95%
Cc1ccccc1NC(=O)C(C)SCc1ccccc1 (stereo not drawn) | 1.66%
CSc1ccc(C2NN=C(c3ccccc3)S2)cc1 (stereo not drawn) | -13.9%
COc1ccc(C=C2C=C(C(C)(C)C)C(=O)C(C(C)(C)C)=C2)cc1OC | 16.1%
COc1ccc(NC(=O)CN(C)C(=O)CNC(=O)c2sc3ccccc3c2Cl)cc1 | -12%
Cc1cc([N+](=O)[O-])ccc1NC(=O)CSc1nncn1-c1ccccn1 | -3.56%
Cc1ccc(-n2c(C)c3c(C)nnc(C)c3c2C)cc1C | -4.79%
CC(C)Cn1c(N)c(C(=O)NCC2CCCO2)c2nc3ccccc3nc21 (stereo not drawn) | 6.47%
COc1ccc(C(=O)NC(=S)Nc2ccccc2F)cc1 | 9.05%
Cc1ccc(NC(=O)CSC(C)C(=O)OC(C)C(=O)NC2CCCCC2C)cc1 (stereo not drawn) | -2.33%
CC(C(=O)N/N=C/c1ccc(N(C)C)c(Br)c1)N(c1ccccc1)S(C)(=O)=O (stereo not drawn) | 12%
CCN1CCN(S(=O)(=O)Cc2ccccc2Cl)CC1 | 14.6%
CC(=O)c1c(C)[nH]c(C(=O)COc2ccc3c(C)cc(=O)oc3c2)c1C | 17.2%
CCOc1ccc(NC(=O)Nc2cccn(Cc3ccccc3)c2=O)cc1 | 12.1%
CC(C)(C)c1csc(NC(=O)Cc2cccs2)n1 | 11.2%
O=C(O)CCCNC(=O)CC1S/C(=N/N=C/c2ccccc2O)NC1=O (stereo not drawn) | 16.9%
Cc1nn(C)c(C)c1NC(=O)CCSc1nc(-c2ccco2)cc(C(F)(F)F)n1 | 8.03%
COc1cccc(CC(=O)OCC(=O)NNC(=O)c2ccc(Br)cc2)c1 | 5.5%
O=[N+]([O-])c1ccc(Nc2cccc(F)c2)nc1 | 18.1%
Cc1cccc(-n2nnc(C(=O)NCc3ccccc3)c2N)c1 | 7.4%
FC(F)Oc1ccc(/C=N/NC(=S)Nc2cc(C(F)(F)F)ccc2Cl)cc1 | 10.4%
CCN1CCN(Cc2cc(=O)oc3cc(C)cc(C)c23)CC1 | -45%
COc1ccc(-c2cc(=O)oc3c(C)c(O)c(CN(C)C)cc23)cc1 | 6.02%

Compound | hERG current change (%, negative = inhibition) at 1uM
CC(C)CNc1nc(N)c([N+](=O)[O-])c(NCC2CCCO2)n1 (stereo not drawn) | 2.3%
CCc1ccc(/C=N/NC(=O)c2cc(-c3ccncc3)nc3ccccc23)s1 | 12.1%
CCOc1ccc2nc(SCC(=O)Nc3nonc3C)[nH]c2c1 | 6.98%
O=C(Nc1nc2c(Cl)ccc(Cl)c2s1)c1ccco1 | 13.4%
O=C1CS/C(=C\[N+](=O)[O-])N1c1ccc(OC(F)(F)F)cc1 | 8.61%
C=CCNc1cc(N2CCCC2)ccc1[N+](=O)[O-] | 6.9%
Cc1ccc(NC(=S)N2CCC(c3ccc(C)cc3)C2)cc1 (stereo not drawn) | 5.38%
Cc1cc(NC(=O)CCC(=O)N(c2ccccc2)C(C)C(=O)NC2CCCC2)no1 (stereo not drawn) | 8.55%
CCN=c1sc2ccccc2n1CC(O)COc1ccccc1 (stereo not drawn) | 5.32%
Cc1ccc(OCCOC(=O)c2sc(=S)n(C)c2C)cc1 | 11.9%
COC(=O)CCCNC(=O)c1ccc2oc(CCCc3ccccc3)nc2c1 | 7.86%
Cn1c(SCC(=O)NC2CCCC2)nnc1-c1ccncc1 | 16.7%
CC(=O)Oc1ccc(N2C(=O)C3C4C=CC(O4)C3C2=O)cc1 (stereo not drawn) | 22.8%
CN(C(=O)CO/N=C/c1ccc(OC(F)F)cc1)C1CCS(=O)(=O)C1 (stereo not drawn) | -32.9%
COCCNC(=O)COc1ncnc2scc(-c3ccc(F)cc3)c12 | 9.63%
Cc1cc(N2CCN(C(c3ccccc3)c3ccccc3)CC2)n2ncnc2n1 | 8.18%
O=C1C2C3C=CC(C2C(=O)N1c1ccc(O)cc1)C1C2C(=O)N(c4ccc(O)cc4)C(=O)C2C31 (stereo not drawn) | -8.85%
CC(=O)Nc1ccc(S(=O)(=O)NC2(C(F)(F)F)NC(=O)N(c3ccc(C)cc3)C2=O)cc1 (stereo not drawn) | 9.35%
CCCOc1ccc(CC(=O)NCCc2ccccc2)cc1OC | 11.4%
CC(=O)NC(Cc1ccc(F)c(F)c1)C(=O)NC1CCN(C(=O)c2ccc(Cl)cc2)CC1 (stereo not drawn) | 11.5%
O=C(COC(=O)c1ccc(Cl)c(S(=O)(=O)N2CCCCCC2)c1)Nc1ccccc1 | 16.3%
